Reference: article doi:10.1101/756874, “Spontaneous oligomerization of BAK/BAX is suppressed by hetero-dimerization with MCL-1” (bioRxiv, 2019)

Biological target: the molecule itself
Test: SEC; proteins pre-incubated in detergent (PS20, C12E8 and others, at the multiples of CMC given in the legends); Superdex 200 Increase 10/300 GL, 50 mM sodium phosphate pH 7.0

B1: BAX ([…], […], C62S, C126S) (domain or fragment)
chain: not shown
notes: human BAX, […], without the C-terminal transmembrane helix; cysteines mutated to serines; Theoretical mass 18933.65 Da; source: E. coli C41(DE3), purified (chitin resin, intein self-cleavage with DTT, SEC); not shown: intein, C-terminal, cleaved
binding result: binds
